Whole data set: some 33,000 sequences, median “E-score (-0.5 to 0.5)” near -0.016, cut for the highest 2% near 0.32. This is one part of the list.
target: T1, Stp1 (UniProt B3LFK1); assay: PBM E-score (8-mer binding enrichment) (E-score (-0.5 to 0.5)); higher = stronger / more preferred TF binding; most listed sequences are background and not binding sites; conditions: protein concentration: 200 nM; construct: GST-full length
T1 sequence: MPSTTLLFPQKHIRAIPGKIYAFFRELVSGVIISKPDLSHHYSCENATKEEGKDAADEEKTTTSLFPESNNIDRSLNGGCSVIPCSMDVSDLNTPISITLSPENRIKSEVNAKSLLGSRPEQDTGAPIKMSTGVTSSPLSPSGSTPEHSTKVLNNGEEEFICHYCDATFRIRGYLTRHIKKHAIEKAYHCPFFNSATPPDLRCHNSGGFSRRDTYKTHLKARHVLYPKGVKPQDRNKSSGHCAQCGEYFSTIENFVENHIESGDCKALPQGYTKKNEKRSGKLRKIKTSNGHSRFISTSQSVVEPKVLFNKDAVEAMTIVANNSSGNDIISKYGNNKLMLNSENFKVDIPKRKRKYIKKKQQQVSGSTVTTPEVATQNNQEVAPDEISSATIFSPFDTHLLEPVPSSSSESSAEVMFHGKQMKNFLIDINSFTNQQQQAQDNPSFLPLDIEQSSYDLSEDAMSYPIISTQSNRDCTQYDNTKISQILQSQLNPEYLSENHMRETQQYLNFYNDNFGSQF
Method in brief: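 Yeast transcription factors, full-length or as DNA-binding domains, were expressed with a GST tag using PURExpress in vitro transcription/translation. At about 100-200 nM they were applied to universal all-10-mer Agilent arrays, double-stranded by primer extension on fresh or once-stripped slides. Fluorescent anti-GST detected bound protein, and masliner normalised the scans. E-scores for ungapped eight-base words, pooled with reverse complements, came from the Universal PBM Analysis Suite.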

Row | Sequence | PBM E-score
1 | AACCAAGT | 0.132
2 | ATGAGAGA | 0.0512
3 | ATGTGACC | -0.0184
4 | GGGCTGTA | -0.317
5 | TACCGGTA | -0.115
6 | AATGCGGA | 0.0673
7 | AGACGATA | 0.0435
8 | GGCCTTAA | 0.0677
9 | TCTGCCAA | -0.255
10 | CCATATGG | 0.0408
11 | AAGCAGGA | -0.113
12 | TAGGTTCA | 0.0555
13 | CCCCTTGA | -0.137
14 | AGCTAGAT | -0.0481
15 | GGCCGTAA | 0.192
16 | ATAGGAGA | -0.205
17 | GATGATCA | -0.0875
18 | GCCATACA | 0.174
19 | GAGCACGA | -0.0484
20 | CGCGCTAG | 0.129
21 | ACTAATCG | 0.144
22 | AAGTGTCG | -0.0319
23 | CGTCGGTC | 0.00037
24 | ATCCACAC | -0.106
25 | TACTTCCA | 0.0101

Row | Sequence | PBM E-score
26 | AATGTAAA | 0.122
27 | CGTCGTGC | 0.143
28 | AGGTATAA | 0.0442
29 | GTGGTTAA | 0.14
30 | GCGGGGAC | -0.0535
31 | TGCCTACA | 0.142
32 | ACTAGGGG | -0.169
33 | CGGCATGC | 0.338
34 | AGAATGCA | -0.0184
35 | GTTAAGCA | -0.0523
36 | CCGGAATA | -0.12
37 | ATCAAATG | 0.0465
38 | GCAGACAC | 0.0232
39 | GTTAGCTA | 0.00972
40 | TGCACCCA | -0.208
41 | ACCATTAC | 0.0161
42 | CCAACCCC | -0.207
43 | CAACGTGG | 0.0582
44 | ATAGGGTC | -0.256
45 | AGGTAGAC | -0.183
46 | CGAAAGCA | -0.0294
47 | CATTGTCA | -0.0284
48 | GACTTCTC | -0.0937
49 | GATGTGGC | 0.105
50 | CTCGCGTA | -0.122

Row | Sequence | PBM E-score
51 | CCAGGACC | -0.325
52 | GTGTACCA | -0.152
53 | ATTCACTA | 0.0352
54 | TATATCGA | 0.253
55 | GAGCGGAC | -0.131
56 | AACCTCCG | -0.339
57 | TACGCAGA | 0.0566
58 | TGAAACAA | 0.133
59 | ATCTGGGG | -0.374
60 | CGTAAGAC | -0.0428
61 | GCGTCCCA | -0.16
62 | AAAGCCCT | -0.19
63 | TAGTATAA | 0.119
64 | CTAACGAC | -0.0775
65 | ACTGTGCC | 0.262
66 | AAGATCCG | -0.1
67 | GGTTTAGA | -0.156
68 | ATCCATGC | 0.0293
69 | CCAACGTA | -0.0611
70 | CCCTGAGA | -0.311
71 | CGAGGCCC | -0.0701
72 | GGACAACC | -0.11
73 | ACGTGTAT | 0.014
74 | AACACTAG | -0.0344
75 | ATACGGCA | 0.483

Row | Sequence | PBM E-score
76 | ACATCTGA | -0.0759
77 | ATATCAAT | 0.178
78 | CGAAGTAA | 0.0461
79 | ATGGCCCC | -0.214
80 | GCGATACA | 0.0444
81 | AATTGCAT | 0.0958
82 | ATCCTCTG | -0.194
83 | CTAGATAA | 0.0636
84 | CCGCGCTA | 0.289
85 | GTTCCATA | -0.164
86 | ACAAATGT | 0.0876
87 | GAGGAAGA | -0.12
88 | CAGCAAGG | 0.0199
89 | AGGGATGA | -0.12
90 | CAGAATTA | -0.117
91 | CAGTGGCA | 0.178
92 | ATGAGTTA | -0.0188
93 | AGTAGGAT | -0.0597
94 | AAATTTCC | -0.0272
95 | TTCCAAAA | 0.113
96 | CGCGGGTA | 0.0364
97 | AACGACTG | -0.143
98 | ATACTAGA | 0.136
99 | CACCTACG | -0.152
100 | AGCTGCAT | 0.00937

Row | Sequence | PBM E-score
101 | CTTAGGGC | -0.0209
102 | CAGTACGA | 0.0821
103 | CTAGATTA | 0.122
104 | ACCGAAAC | -0.0536
105 | TCCAACGA | -0.00725
106 | ATGGTAGG | -0.116
107 | ATTGTGCC | 0.322
108 | CAAAGTCG | -0.0558
109 | AGTGGTAG | -0.131
110 | GCGCGAAC | 0.172
111 | CGTTTTAC | 0.15
112 | ACCCTTTG | -0.109
113 | AGTAGGGC | 0.0649
114 | CCACCAGG | -0.198
115 | TAGTTCGA | 0.125
116 | AACGGGAT | 0.00558
117 | CTACGCCC | -0.102
118 | CTATAAAC | 0.142
119 | CGTGTTAC | 0.0646
120 | AGGGCATA | 0.128
121 | TACAGGCA | 0.102
122 | GTGTACAC | -0.0403
123 | GTATAATA | 0.286
124 | ATTGATTA | 0.338
125 | ATTAAATC | 0.128

Row | Sequence | PBM E-score
126 | ACGTCGCC | -0.0772
127 | GTCCTAAA | 0.204
128 | ACCGGGGG | -0.392
129 | GTGAGTAA | 0.15
130 | AGTCATGA | -0.099
131 | CTCCGTAC | 0.184
132 | CGATAAAG | 0.0783
133 | ACACGCTA | -0.118
134 | GCGACTTA | -0.0993
135 | AAGTGCAC | -0.034
136 | CCTGTCTC | -0.247
137 | AATAATAC | 0.0846
138 | AGCCAGAG | -0.302
139 | GACGTAGA | -0.253
140 | CAATGTAG | -0.324
141 | AGGTCACC | -0.222
142 | ACCCAGCT | -0.283
143 | AGATCATG | -0.00529
144 | ACGCCGGG | -0.0857
145 | GACATCCA | -0.209
146 | GAGTTGGA | -0.157
147 | GAGGCAGC | 0.0343
148 | GCCAATCA | -0.224
149 | CGGTGGTA | -0.081
150 | GTAGGTCA | -0.249

Row | Sequence | PBM E-score
151 | ACACTCGC | 0.00829
152 | AGGACTGA | -0.149
153 | AGTCATTA | -0.172
154 | CGCTAAGC | 0.186
155 | ACAGAGAC | -0.0839
156 | CCCGAGAC | -0.212
157 | AAACCACG | -0.089
158 | GGTTACAC | -0.101
159 | GAAATTGC | -0.0367
160 | ACCTGCAC | -0.155
161 | GGGGGAAC | -0.321
162 | CATATCGC | 0.199
163 | ATCAGATG | 0.0874
164 | GAACCCAA | -0.0962
165 | CCTCCCTC | -0.168
166 | GCAACTCC | 0.0368
167 | ATTTGACG | 0.13
168 | GTATGGGA | -0.155
169 | CGTGATAC | -0.05
170 | AATGCGGC | 0.435
171 | GGATCTCA | -0.137
172 | AAGTCGTG | -0.119

Reference: the supplement of paper PMC3334620
